Reference: the supplement of paper PMC3334620
The full ranking holds about 33,000 sequences; the median of “E-score (-0.5 to 0.5)” is about -0.021, and the highest 2% start at about 0.32. Some of the results follow.

The sequences below were run against T1, Zap1 (UniProt P47043) (assay: PBM E-score (8-mer binding enrichment) (E-score (-0.5 to 0.5)); higher = stronger / more preferred TF binding; most listed sequences are background and not binding sites). Settings: protein concentration: 200 nM; construct: GST-full length.
T1 sequence: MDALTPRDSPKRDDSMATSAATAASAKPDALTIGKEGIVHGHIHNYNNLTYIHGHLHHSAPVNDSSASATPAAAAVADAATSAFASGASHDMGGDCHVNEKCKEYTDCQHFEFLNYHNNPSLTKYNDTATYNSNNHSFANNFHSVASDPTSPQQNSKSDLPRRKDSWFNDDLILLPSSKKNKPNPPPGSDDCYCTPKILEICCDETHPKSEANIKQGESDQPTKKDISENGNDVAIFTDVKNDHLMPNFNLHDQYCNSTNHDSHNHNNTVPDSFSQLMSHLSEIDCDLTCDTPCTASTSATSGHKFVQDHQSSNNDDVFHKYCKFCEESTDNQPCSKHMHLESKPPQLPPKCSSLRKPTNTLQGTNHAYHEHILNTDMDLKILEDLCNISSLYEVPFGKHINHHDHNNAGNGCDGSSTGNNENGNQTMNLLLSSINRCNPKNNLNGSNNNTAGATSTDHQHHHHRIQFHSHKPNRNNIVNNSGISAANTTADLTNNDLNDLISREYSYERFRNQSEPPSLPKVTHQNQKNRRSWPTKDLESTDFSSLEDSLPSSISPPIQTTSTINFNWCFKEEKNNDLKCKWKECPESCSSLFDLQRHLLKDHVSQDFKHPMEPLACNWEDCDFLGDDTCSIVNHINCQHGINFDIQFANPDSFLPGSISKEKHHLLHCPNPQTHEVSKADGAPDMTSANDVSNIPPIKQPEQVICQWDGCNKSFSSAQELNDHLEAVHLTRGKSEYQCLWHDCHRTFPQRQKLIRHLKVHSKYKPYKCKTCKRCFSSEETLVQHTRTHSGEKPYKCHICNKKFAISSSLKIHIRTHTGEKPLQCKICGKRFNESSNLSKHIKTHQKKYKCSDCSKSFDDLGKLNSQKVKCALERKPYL
Method in brief: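 Full-length yeast transcription factors or their DNA-binding domains, GST-tagged and expressed with PURExpress, were applied at about 100-200 nM to universal all-10-mer Agilent arrays. These arrays had been made double-stranded by primer extension on fresh or once-stripped slides. Detection used fluorescent anti-GST, normalisation used masliner, and E-scores for ungapped eight-base words pooled with reverse complements came from the Universal PBM Analysis Suite.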

First: ATAATGAT
Second: GCGGTAGC
The “PBM E-score” value of the first is higher: 0.118 for the first, 0.0107 for the second.

First: ATACCACA
Second: ATACGGTA
The “PBM E-score” value of the first is higher: 0.193 for the first, 0.151 for the second.

First: GAGTAGGC
Second: CACCTGGC
The “PBM E-score” value of the first is lower: -0.277 for the first, -0.0369 for the second.

Compared with ACCCAACC, TCGGCAGA is lower in “PBM E-score” value: 0.178 for the first, -0.16 for the second.

First: AAGAACTT
Second: ACCTAACC
The “PBM E-score” value of the first is lower: -0.0276 for the first, 0.269 for the second.

Going from CCAATCTC to CCAAATAA, the “PBM E-score” value rises from 0.0579 to 0.182.

First: GTATCTTA
Second: ATGGTATG
The “PBM E-score” value of the first is higher: 0.135 for the first, -0.053 for the second.

Going from ACATGACA to AAATCAAG, the “PBM E-score” value falls from 0.0802 to 0.00887.

First: ACCGCTTC
Second: CCAGGTGA
The “PBM E-score” value of the first is lower: -0.148 for the first, 0.027 for the second.

First: AGGGGGAC
Second: AACGAGGT
The “PBM E-score” value of the first is lower: -0.23 for the first, 0.277 for the second.

Going from CCTCCGGA to GTGTTTTA, the “PBM E-score” value rises from -0.0743 to 0.0887.

First: ATTAACCA
Second: CCGAGCAG
The “PBM E-score” value of the first is higher: 0.246 for the first, -0.0159 for the second.

Going from AACACCAG to TAGGGGGA, the “PBM E-score” value falls from -0.134 to -0.226.

Compared with TTTCAAAA, AACTGGTA is lower in “PBM E-score” value: 0.321 for the first, 0.0786 for the second.

Going from TCAGCAGA to AGTACACT, the “PBM E-score” value rises from -0.21 to -0.171.

Compared with GTTCCGAA, CTAATGGA is lower in “PBM E-score” value: 0.149 for the first, 0.0657 for the second.

First: ACGAGGCT
Second: CTATATTC
The “PBM E-score” value of the first is higher: 0.0827 for the first, 0.0564 for the second.

First: CCCCGATC
Second: GGGCATGA
The “PBM E-score” value of the first is higher: -0.087 for the first, -0.241 for the second.

Compared with CGGTCTCA, GTCCCTCA is lower in “PBM E-score” value: 0.035 for the first, -0.108 for the second.

Compared with AGTTAAAT, GTCAAGCA is lower in “PBM E-score” value: 0.0523 for the first, -0.238 for the second.

Compared with AGTCGCTG, TAAGTGGA is higher in “PBM E-score” value: -0.0667 for the first, 0.163 for the second.

First: ATTCAACC
Second: ACAGTAAG
The “PBM E-score” value of the first is higher: 0.126 for the first, 0.048 for the second.

First: ATCTCCAA
Second: CCGGAAGC
The “PBM E-score” value of the first is higher: 0.0334 for the first, -0.156 for the second.

Compared with AAGTGAGA, CTACAATA is higher in “PBM E-score” value: -0.0484 for the first, 0.145 for the second.

First: TAACTGCA
Second: CGCTCGTA
The “PBM E-score” value of the first is higher: 0.0396 for the first, -0.0143 for the second.

Compared with GCTACAAC, TAGCGGGA is lower in “PBM E-score” value: 0.00769 for the first, -0.132 for the second.

Compared with TCGATGAA, ATTCTCTC is higher in “PBM E-score” value: -0.102 for the first, -0.0801 for the second.

Compared with ATCATCAA, GCGGTGAC is higher in “PBM E-score” value: 0.0384 for the first, 0.19 for the second.

Going from TAAGGCCA to GCGATTGA, the “PBM E-score” value falls from 0.0396 to -0.0546.

Compared with CTACGCGC, CGAGCAAG is lower in “PBM E-score” value: -0.0598 for the first, -0.123 for the second.

Compared with ACAGTTCT, TCTGCGAA is lower in “PBM E-score” value: -0.0571 for the first, -0.217 for the second.

Going from ACGTGTCA to GACTCAGC, the “PBM E-score” value falls from -0.153 to -0.199.

First: ACTCAGTA
Second: CAACGCCG
The “PBM E-score” value of the first is higher: 0.033 for the first, -0.0924 for the second.

Compared with CCACAAGC, CCGTGTAA is lower in “PBM E-score” value: 0.0428 for the first, -0.125 for the second.

Going from AAGGCACC to CTACTCAA, the “PBM E-score” value rises from 0.0852 to 0.165.

Going from CAGCTTTC to GCGGGGCA, the “PBM E-score” value falls from -0.138 to -0.179.

Compared with AACAGAAG, CTGCTCTC is lower in “PBM E-score” value: -0.0982 for the first, -0.18 for the second.

Going from GCATCTAC to GACGACCC, the “PBM E-score” value rises from -0.1 to 0.173.

Compared with CGCCGTAC, ACTCCGAG is lower in “PBM E-score” value: -0.0521 for the first, -0.109 for the second.

Going from ACCTCGGG to GAGGGTAA, the “PBM E-score” value rises from 0.2 to 0.264.

First: GTTTTATA
Second: ACGATTCT
The “PBM E-score” value of the first is higher: 0.0924 for the first, -0.156 for the second.

Going from ACTCAATG to GACAGATC, the “PBM E-score” value falls from 0.0233 to -0.128.

First: ACAAAACC
Second: AACTCCCT
The “PBM E-score” value of the first is higher: 0.312 for the first, -0.0262 for the second.
